From PubChem BioAssay AID1345083 (National Center for Advancing Translational Sciences (NCATS), 2018)
Hit rate of the full screen: of about 94,000 compounds, about 6,200 (6.6%) were called active. Inconclusive means that the source gave no clear call. Such entries were picked first, then a sample of the others. The call rests on the fitted dose curve; in most records, active means well fitted inhibition curve with a large enough effect; inconclusive means small, poorly fitted or top-dose-only effect; inactive means flat fitted curve, though single readings scatter. A potency beside an inconclusive call is a rough fit, not a confirmed value.

test: Cytotoxic Profiling in HEK 293 Cell Line of Diverse Libraries Using Quantitative High-Throughput Screening; conditions: HEK 293 viability, ATP luminescence (CellTiter-Glo), 48-72 h; activity change, negative = cytotoxicity: at 115 µM (top of the series) unless noted; series mostly up to 115 µM; further: nearly all actives have a fitted effect of over 60% in size
Procedure, shortened: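 Cytotoxicity was scored by loss of ATP-coupled luminescence (CellTiter-Glo) in HEK 293 cells. Compound treatment ran 48 or 72 hr at 37 degree Celsius, 5% CO2, 95% humidity.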
On the % scale 0 is the no-effect control and ±100 the full control effect; potency means the concentration at half of the fitted maximal effect; tags describe the fitted curve by direction and shape.

| Compound | Potency | activity change, negative = cytotoxicity | outcome |
| --- | --- | --- | --- |
| CN(C(=O)c1ccc2c(c1)NC(C)(COc1cccnc1)CO2)c1ccccc1 (centres undefined) | inconclusive: 39.8 µM [inhibitor, partial curve, poor fit] |  |  |
| O=C(NCc1ccccc1F)c1ccc2c(c1)CN(Cc1cccnc1)CCO2 | inconclusive: 89.1 µM [inhibitor, single point] |  |  |
| Cc1ccc(CN2CCCc3nc(C)nc(-c4ccc(O)cc4)c3C2)cc1 | inconclusive: 56.2 µM [inhibitor, partial curve, poor fit] |  |  |
| Cc1cccc(CN2C[C@@H]3[C@H](C2)N(CC(C)C)C(=O)C(C)(C)[S+]3(=O)[O-])c1 | inconclusive: 112 µM [inhibitor, single point] |  |  |
| CN1CCCN(S(=O)(=O)c2cccc(Cl)c2)c2ccccc21 | active: 39.8 µM |  |  |
| Cn1cc(CN2CCc3nc(C(=O)NCC4CC4)oc3CC2)cn1 | inconclusive: 126 µM [inhibitor, single point] |  |  |
| CCOc1ccccc1CN1CCCN(S(=O)(=O)c2ccccc2)CCC(=O)NCC1 | inconclusive: 89.1 µM [inhibitor, single point] |  |  |
| COc1ccccc1-c1ccc(C(=O)N2CCC(C(=O)NCc3cccc(Cl)c3)CC2)cc1 | active: 20 µM |  |  |
| Cc1cccc(-c2nc3ccc(C(=O)N(C)C)cc3o2)n1 | inconclusive: 39.8 µM [inhibitor, partial curve] |  |  |
| O=C(NC1CCN(c2nccc(Nc3ccccc3F)n2)CC1)c1ccc(Cl)nc1 | inconclusive: 22.4 µM [inhibitor, full curve] |  |  |
| COc1ccc(C2Cn3cnc(C(=O)N4CCC(C(=O)Nc5ccccc5)CC4)c3CO2)cc1 (centres undefined) |  | inactive: 2% |  |
| CCCN(CC1CCOC1)C(=O)NCCC(C)C (centres undefined) |  | inactive: -0.29% |  |
| CC(C)(C)OC(=O)NC(CN)c1ccccc1Cl (centres undefined) |  | inactive: -22% [at 172 µM] |  |
| COCC(=O)NC1CCCN(Cc2ccc(-c3cc(C)cc(C)c3)cc2)C1 (centres undefined) | inconclusive: 8.91 µM [inhibitor, full curve, poor fit] |  |  |
| O=S(=O)(Cc1noc([C@@H]2C[C@@H](O)CN2Cc2cc3ccccc3o2)n1)c1ccc(F)cc1 | inconclusive: 100 µM [inhibitor, single point] |  |  |
| COc1cccc(-c2cccc(C(=O)N3CCCC3C(=O)NC3CCC3)c2)c1 (centres undefined) |  | inactive: -27.1% |  |
| Cn1ncc2c(C(=O)NCCc3ccc(F)cc3)cc(-c3ccc(C(F)(F)F)cc3)nc21 |  |  | inactive |
| COc1ccc(-c2noc([C@@H]3Cc4nc[nH]c4CN3Cc3ccc(CO)o3)n2)cc1 |  | inactive: -24.5% [at 172 µM] |  |
| CC(=O)c1ccc(NC(=O)N2C[C@@H]3C[C@H](C2)c2ccc(NC(=O)Nc4cccc(F)c4)c(=O)n2C3)cc1 |  | inactive: -1.05% |  |
| COc1cc(=O)n2c(c1C(=O)Nc1cc(Cl)cc(Cl)c1)CCCC2 |  | inactive: 11% |  |
| CCn1nccc1C(=O)N1CCC2(CC1)NCCc1c2[nH]c2ccccc12 | inconclusive: 50.1 µM [inhibitor, partial curve, poor fit] |  |  |
| O=C(CC1CCCCC1)N1CCC2(CC1)NC(=O)N(c1ccc(F)cc1)N2 | inconclusive: 44.7 µM [inhibitor, partial curve, poor fit] |  |  |

| Compound | Potency | activity change, negative = cytotoxicity | outcome |
| --- | --- | --- | --- |
| CC1(CNCc2ccccc2)COc2ccc(C(=O)NCc3cccs3)cc2N1 (centres undefined) | inconclusive: 126 µM [inhibitor, single point] |  |  |
| COc1ccc(-c2nc3cc(C)ccc3cc2CN2CCCC(CO)C2)cc1OC (centres undefined) | inconclusive: 35.5 µM [inhibitor, single point] |  |  |
| CN(C)c1ccc(C(=O)N2CCC3(CC2)NC(=O)N(Cc2ccc(F)cc2)C3=O)cc1 | inconclusive: 3.55 µM [inhibitor, full curve, poor fit] |  |  |
| CCCC(=O)N1Cc2ccccc2CC2(CCCCN2CC)C1 (centres undefined) | inconclusive: 89.1 µM [inhibitor, single point] |  |  |
| CNC(=O)c1cccc(-c2cnc3[nH]cc(CC(=O)N(C)c4ccccc4)c3c2)c1 | active: 44.7 µM |  |  |
| COc1cccc(CC(=O)NCCn2ccn3nc(-c4ccc(C)cc4C)cc3c2=O)c1 | inconclusive: 50.1 µM [inhibitor, partial curve, poor fit] |  |  |
| COc1ncccc1-c1cnc2n[nH]c(-c3ccc4c(c3)OCO4)c2n1 | active: 44.7 µM |  |  |
| CC1=NS(=O)(=O)N(C)C=C1C(=O)OCc1nc(-c2ccc(Br)cc2)no1 | inconclusive: 31.6 µM [inhibitor, full curve] |  |  |
| Clc1ccc(CNC[C@H]2Cn3c(-c4cccc(Cl)c4)cnc3CO2)cc1 | active: 63.1 µM |  |  |
| CN(C)c1ccc(CNC(=O)C2(c3ccc(NS(C)(=O)=O)cc3)CCCCC2)cc1 | inconclusive: 70.8 µM [inhibitor, single point] |  |  |
| CC(C)c1ccc(NC(=O)c2cc3n(n2)CC(c2ccc(Cl)cc2)OC3)cc1 (centres undefined) | inconclusive: 31.6 µM [inhibitor, partial curve, poor fit] |  |  |
| COCCC(=O)N1CC(Oc2ccc(-c3noc(-c4ccccc4)n3)cc2)C1 | active: 22.4 µM |  |  |
| COCCC1(N(C)C)CCN(C(=O)CC2CCCCC2)CC1 |  |  | inactive |
| O=C(NCc1cccs1)c1noc(-c2ccc(F)cc2)n1 | inconclusive: 89.1 µM [inhibitor, single point] |  |  |
| CN(Cc1cccnc1)C(=O)CCC1CCN(S(=O)(=O)c2ccccc2)CC1 | inconclusive: 79.4 µM [inhibitor, partial curve, poor fit] |  |  |
| O=C(NCCCc1ccccc1)c1cc(-c2cc(Cl)cc(Cl)c2)c2cccn2n1 | inconclusive: 50.1 µM [inhibitor, partial curve, poor fit] |  |  |
| CC(=O)N1CCN(c2nccc(Nc3ccccc3F)n2)CC1 | inconclusive: 79.4 µM [inhibitor, partial curve] |  |  |
| CCn1cc(C(=O)N2CCC3(CC2)CN(C2CCC2)CC3CO)cn1 (centres undefined) | inconclusive: 89.1 µM [inhibitor, single point] |  |  |
| O=C1[C@@H]2C[C@@H](O)CN2C2(CN(Cc3ccccn3)C2)C(=O)N1Cc1ccccc1F |  | inactive: -3.08% [at 172 µM] |  |
| Cc1ccc(C)c(CN2CCC3(CCC(=O)N(CCc4ccncc4)C3)CC2)c1 |  | inactive: -14.7% |  |
| Fc1ccc(-c2cc3c(cn2)CN(Cc2ccncc2)CCN3)cc1Cl | active: 56.2 µM |  |  |
| COc1cccc(C(=O)NC2CCN(CCn3nc4n(c3=O)CCCC4)C2)c1 (centres undefined) |  | inactive: 3.55% |  |

| Compound | Potency | activity change, negative = cytotoxicity | outcome |
| --- | --- | --- | --- |
| O=C(Nc1ccnn1C1CCN(C(=O)c2ccc3n[nH]nc3c2)CC1)C1CC1 |  | inactive: -0.681% |  |
| COc1ccc(OC)c(NC(=O)CN2C(=O)NC(c3ccc(Cl)cc3)C3=C2COC3=O)c1 (centres undefined) | inconclusive: 44.7 µM [inhibitor, partial curve, poor fit] |  |  |
| C[C@@]12CO[C@H](c3ccccc3)C[C@@H]1C[C@H](N1CCN(CCOCc3ccccc3)CC1)C2 | inconclusive: 56.2 µM [inhibitor, partial curve, poor fit] |  |  |
| COc1ccc(-c2ccc(C(=O)N3CCN([S+](C)(=O)[O-])CC3)cc2)nn1 |  | inactive: -5.16% |  |
| O=C(Nc1cc(F)cc(C(F)(F)F)c1)N1CCC(Cn2cccn2)CC1 | inconclusive: 89.1 µM [inhibitor, single point] |  |  |
| CC1(C)[C@H](Cc2cc(CN3CCOCC3)on2)C[C@@H]1NCc1ccccc1O | inconclusive: 70.8 µM [inhibitor, partial curve, poor fit] |  |  |
| COc1cc(OC)cc(C(=O)N2CCC[C@H]2c2nc(-c3ccc(C)cc3)no2)c1 | inconclusive: 50.1 µM [inhibitor, partial curve, poor fit] |  |  |
| COc1ccccc1-c1cc(C(=O)N(C)c2ccccc2)c2cnn(C)c2n1 | inconclusive: 79.4 µM [inhibitor, partial curve, poor fit] |  |  |
| N#Cc1cccnc1-c1cccc(C(=O)NCCN[S+](=O)([O-])c2cccc(C(F)(F)F)c2)c1 | inconclusive: 89.1 µM [inhibitor, single point] |  |  |
| CC(=O)N1CCC(c2nc(-c3nnn4c3COC(c3ccc(C)cc3)C4)no2)CC1 (centres undefined) | inconclusive: 79.4 µM [inhibitor, single point] |  |  |
| CS(=O)(=O)N1CC2(CCN(CC3CCCCC3)C2)Cc2ccccc21 (centres undefined) | inconclusive: 79.4 µM [inhibitor, partial curve] |  |  |
| CC(=O)Nc1cccc(-c2ccc3c(n2)c(=O)ncn3Cc2ccccc2)c1 |  | inactive: -5.52% [at 172 µM] |  |
| Cc1noc(-c2nc(-c3cccc(F)c3)no2)n1 | inconclusive: 89.1 µM [inhibitor, single point] |  |  |
| Cc1ccc(NC(=O)Cn2c(N3CCc4ccccc4C3)nc(C)cc2=O)c(Cl)c1 | inconclusive: 79.4 µM [inhibitor, partial curve] |  |  |
| CC1=C[C@@H](CNC(=O)NC2CCCCC2)[C@H](C(C)C)C[C@H]1Cc1nc2ccc(C)cc2[nH]1 | inconclusive: 31.6 µM [inhibitor, full curve] |  |  |
| O=C(CCc1nc2ccccc2s1)N1CCC(c2nc(C3CCOCC3)no2)CC1 | inconclusive: 89.1 µM [inhibitor, single point] |  |  |
| O=C(c1ccc(F)cc1)N1CCC2(CC1)CC(Cc1ccccc1)=NO2 | inconclusive: 89.1 µM [inhibitor, partial curve] |  |  |
| COc1ccc(C(=O)NCc2nnc3ccc(-c4ccc(Cl)cc4)nn23)cc1F | inconclusive: 56.2 µM [inhibitor, partial curve, poor fit] |  |  |
| N[C@@H](Cc1ccc(O)cc1)C(=O)N1CCc2c(nc(-c3cccnc3)[nH]c2=O)C1 | inconclusive: 79.4 µM [inhibitor, single point] |  |  |
| CCOc1cc(=O)n2c(c1C(=O)Nc1cc(C)ccc1F)CCCC2 | inconclusive: 89.1 µM [inhibitor, single point] |  |  |
